Reference: the BET-seq Pho4 binding data (Le et al. 2018)
This is one part of the list. Values were computed here from the reads of four pooled replicates and scatter widely.

Biological target: T1, Pho4 (S. cerevisiae) (UniProt P07270)
T1 sequence: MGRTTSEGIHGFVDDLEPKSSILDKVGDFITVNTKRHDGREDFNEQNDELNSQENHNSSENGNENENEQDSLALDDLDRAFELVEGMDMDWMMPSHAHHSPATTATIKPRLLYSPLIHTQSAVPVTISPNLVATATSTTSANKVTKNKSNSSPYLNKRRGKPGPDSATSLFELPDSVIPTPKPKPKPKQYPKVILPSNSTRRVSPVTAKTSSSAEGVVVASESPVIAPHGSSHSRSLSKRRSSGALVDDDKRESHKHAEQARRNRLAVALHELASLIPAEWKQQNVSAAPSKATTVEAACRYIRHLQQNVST
Experiment: relative binding free energy (BET-seq); higher = weaker binding
Conditions: reference: library average

Row | Sequence | relative binding free energy
1 | GTGGGCACGTGATGAG | 0.16 kcal/mol
2 | ATACGCACGTGTTTAT | -0.04 kcal/mol
3 | TTGAACACGTGAGTAG | 0.18 kcal/mol
4 | CTTATCACGTGTATGT | 0.23 kcal/mol
5 | GGGGGCACGTGTACAA | -0.02 kcal/mol
6 | ATATGCACGTGTTATA | -0.04 kcal/mol
7 | AGCGGCACGTGGATGG | -0.01 kcal/mol
8 | TAGTACACGTGTTGAT | 0.1 kcal/mol
9 | GATAACACGTGTGTAG | 0.09 kcal/mol
10 | TAATTCACGTGCGGTC | 0.36 kcal/mol
11 | TATTCCACGTGGGGTG | -0.2 kcal/mol
12 | AGGAGCACGTGGTGAG | -0.1 kcal/mol
13 | GCTTGCACGTGCGTGT | -0.12 kcal/mol
14 | TGGATCACGTGTAAGC | 0.23 kcal/mol
15 | GGCATCACGTGGTTGA | 0.13 kcal/mol
16 | TACCTCACGTGTTGTG | 0.19 kcal/mol
17 | CCGATCACGTGGGGGG | -0.01 kcal/mol
18 | ATGCTCACGTGGTGGC | 0.17 kcal/mol
19 | TGTTTCACGTGGTCGA | 0.22 kcal/mol
20 | TTCCTCACGTGGAGGG | 0.14 kcal/mol
21 | AGTTTCACGTGGGGCA | 0.15 kcal/mol
22 | TTTTACACGTGGTTAA | 0.12 kcal/mol
23 | CGGCTCACGTGTGGGA | 0.13 kcal/mol
24 | TTGGCCACGTGACGTT | 0.1 kcal/mol
25 | TGGTGCACGTGTTCTA | -0.17 kcal/mol

Row | Sequence | relative binding free energy
26 | ATTCTCACGTGGGAAG | 0.3 kcal/mol
27 | ATGTACACGTGTAATG | 0.1 kcal/mol
28 | GAAGGCACGTGTTGCG | 0 kcal/mol
29 | AGCTGCACGTGGGTGC | -0.14 kcal/mol
30 | ATAGCCACGTGTATGG | -0.12 kcal/mol
31 | TATTGCACGTGAGTAA | 0.07 kcal/mol
32 | GCTCTCACGTGGGGTT | 0.25 kcal/mol
33 | CGCGTCACGTGTTATG | 0.12 kcal/mol
34 | TTTGTCACGTGGGGAC | 0 kcal/mol
35 | GTTGGCACGTGTGTTC | 0.02 kcal/mol
36 | TTTATCACGTGTAGTG | 0.24 kcal/mol
37 | GTAATCACGTGAGGTG | 0.31 kcal/mol
38 | TGAAGCACGTGCTTGG | -0.05 kcal/mol
39 | GCTATCACGTGAAGGG | 0.4 kcal/mol
40 | TTGCCCACGTGGTATT | 0.04 kcal/mol
41 | AAGGGCACGTGGAGTG | -0.08 kcal/mol
42 | CTGGTCACGTGCTTTG | 0.03 kcal/mol
43 | GAAAGCACGTGATGTG | 0.2 kcal/mol
44 | TCGCTCACGTGGTGGA | 0.22 kcal/mol
45 | GTATCCACGTGATGTT | 0.17 kcal/mol
46 | TTCTTCACGTGTGTAC | 0.31 kcal/mol
47 | TTGTGCACGTGTGACG | 0.02 kcal/mol
48 | GTATACACGTGTTGGC | 0.09 kcal/mol
49 | ATGGTCACGTGCATGG | 0.02 kcal/mol
50 | ATGAGCACGTGCTAGG | -0.27 kcal/mol

Row | Sequence | relative binding free energy
51 | CGGGGCACGTGGAAGT | -0.01 kcal/mol
52 | GTGTTCACGTGGCATT | 0.11 kcal/mol
53 | AGGAGCACGTGCGTAG | -0.21 kcal/mol
54 | TAAGTCACGTGGTTCG | 0 kcal/mol
55 | CTTTTCACGTGGTTTA | 0.17 kcal/mol
56 | CGGTCCACGTGGATGG | -0.06 kcal/mol
57 | TGAAGCACGTGTCGTT | -0.06 kcal/mol
58 | TTGCGCACGTGGCGTG | -0.26 kcal/mol
59 | TGGGCCACGTGGTACG | -0.17 kcal/mol
60 | TTCGTCACGTGGGGTG | -0.08 kcal/mol
61 | ATAGTCACGTGATGCG | 0.06 kcal/mol
62 | TTTGTCACGTGCTGCG | 0.01 kcal/mol
63 | TGGTTCACGTGAAGCT | 0.26 kcal/mol
64 | GTATACACGTGTGATT | 0.17 kcal/mol
65 | GTGCTCACGTGAGTTA | 0.31 kcal/mol
66 | AAACTCACGTGTTGTT | 0.23 kcal/mol
67 | TGTTCCACGTGGTCGT | -0.14 kcal/mol
68 | TGTCACACGTGCGGAG | 0.19 kcal/mol
69 | CTAGTCACGTGATGGG | 0.18 kcal/mol
70 | GTGTTCACGTGTAGTC | 0.37 kcal/mol
71 | AGGCGCACGTGTGCAG | -0.05 kcal/mol
72 | GACGGCACGTGATTTG | 0.15 kcal/mol
73 | GGCATCACGTGGGAGT | 0.09 kcal/mol
